Repeats are few or missing, and single values can be far off.
Experiments:
CHO-K1 [1] = assay: relative survival (nuclei to bead ratio vs DMSO control) (% of vehicle control); higher = more surviving cells
Procedure: (§1)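 Flow-cytometric in vitro micronucleus assay (Litron MicroFlow) in CHO-K1 cells in 96-well plates, 19 concentrations (4.5-200 µM, n=1 per concentration). Without S9, cells were exposed for 24 h and sampled at 48 h. With Aroclor 1254-induced rat liver S9, cells were exposed for 3-4 h and sampled at 27-28 h. Read-outs are %MN and %hypodiploid nuclei relative to nucleated events, and relative survival as the nuclei-to-bead ratio versus the 1% DMSO vehicle control (x100).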

CHO-K1 [2] = assay: micronucleus frequency (% of nucleated events); higher = more micronuclei (genotoxic)
CHO-K1 [3] = assay: hypodiploid nuclei frequency (% of nucleated events); higher = more hypodiploid events (aneugenic)
Procedure: as §1
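Wherever hypodiploid nuclei frequency (% of nucleated events) is given: hypodiploid nuclei gated on a flow cytometer with 488 nm excitation after SYTOX Green staining, cultures at 37 °C, positive controls vinblastine without S9 and cyclophosphamide with S9.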
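Wherever micronucleus frequency (% of nucleated events) is given: cells lysed with nuclei stained by SYTOX Green, then micronucleus-gated events counted against nucleated events by flow cytometry with 488 nm excitation.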
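Wherever relative survival (nuclei to bead ratio vs DMSO control) is given: Lysed-cell nuclei stained with SYTOX Green and counted against counting beads by flow cytometry at 488 nm excitation, with vinblastine (no S9) and cyclophosphamide (plus S9) as positive controls.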

CC(=O)N1CCN(c2ccc(OCC3COC(Cn4ccnc4)(c4ccc(Cl)cc4Cl)O3)cc2)CC1 (stereo not given) [Ketoconazole]
Conditions	hypodiploid nuclei frequency, CHO-K1 [3] [%]	micronucleus frequency, CHO-K1 [2] [%]	relative survival, CHO-K1 [1]
concentration: 4.5 (µM), S9 metabolic activation: with S9, exposure time: 3-4 hours	0.14	1.04	131
concentration: 4.5 (µM), S9 metabolic activation: without S9, exposure time: 24 hours	0.36	1.28	149
concentration: 5.63 (µM), S9 metabolic activation: with S9, exposure time: 3-4 hours	0.18	0.82	116
concentration: 5.63 (µM), S9 metabolic activation: without S9, exposure time: 24 hours	0.38	1.28	141
concentration: 7.04 (µM), S9 metabolic activation: with S9, exposure time: 3-4 hours	0.3	1.02	119
concentration: 7.04 (µM), S9 metabolic activation: without S9, exposure time: 24 hours	0.42	1.3	119
concentration: 8.8 (µM), S9 metabolic activation: with S9, exposure time: 3-4 hours	0.18	1	122
concentration: 8.8 (µM), S9 metabolic activation: without S9, exposure time: 24 hours	0.52	1.48	100
concentration: 11 (µM), S9 metabolic activation: with S9, exposure time: 3-4 hours	0.16	0.98	134
concentration: 11 (µM), S9 metabolic activation: without S9, exposure time: 24 hours	0.5	1.46	120
concentration: 13.7 (µM), S9 metabolic activation: with S9, exposure time: 3-4 hours	0.14	1.12	118
concentration: 13.7 (µM), S9 metabolic activation: without S9, exposure time: 24 hours	0.5	1.34	114
concentration: 17.2 (µM), S9 metabolic activation: with S9, exposure time: 3-4 hours	0.28	1.02	125
concentration: 17.2 (µM), S9 metabolic activation: without S9, exposure time: 24 hours	0.56	1.5	106
concentration: 21.5 (µM), S9 metabolic activation: with S9, exposure time: 3-4 hours	0.14	1.18	129
concentration: 21.5 (µM), S9 metabolic activation: without S9, exposure time: 24 hours	0.48	1.74	93.2
concentration: 26.8 (µM), S9 metabolic activation: with S9, exposure time: 3-4 hours	0.14	0.84	122
concentration: 26.8 (µM), S9 metabolic activation: without S9, exposure time: 24 hours	0.48	1.52	71.9
concentration: 33.6 (µM), S9 metabolic activation: with S9, exposure time: 3-4 hours	0.24	1.16	139
concentration: 33.6 (µM), S9 metabolic activation: without S9, exposure time: 24 hours	0.68	1.32	62.5
concentration: 41.9 (µM), S9 metabolic activation: with S9, exposure time: 3-4 hours	0.2	1.04	127
concentration: 41.9 (µM), S9 metabolic activation: without S9, exposure time: 24 hours	0.58	0.86	63.3
concentration: 52.4 (µM), S9 metabolic activation: with S9, exposure time: 3-4 hours	0.14	1.04	115
concentration: 52.4 (µM), S9 metabolic activation: without S9, exposure time: 24 hours	0.72	1.26	64.7
concentration: 65.5 (µM), S9 metabolic activation: with S9, exposure time: 3-4 hours	0.28	1.6	103
concentration: 65.5 (µM), S9 metabolic activation: without S9, exposure time: 24 hours	0.68	1.68	62.9
concentration: 81.9 (µM), S9 metabolic activation: with S9, exposure time: 3-4 hours	0.26	2.76	90.9
concentration: 81.9 (µM), S9 metabolic activation: without S9, exposure time: 24 hours	0.36	1.12	51.7
concentration: 102 (µM), S9 metabolic activation: with S9, exposure time: 3-4 hours	–	–	2.14
concentration: 102 (µM), S9 metabolic activation: without S9, exposure time: 24 hours	0.5	1.88	41.1
concentration: 128 (µM), S9 metabolic activation: with S9, exposure time: 3-4 hours	–	–	0.67
concentration: 128 (µM), S9 metabolic activation: without S9, exposure time: 24 hours	–	–	32
concentration: 160 (µM), S9 metabolic activation: with S9, exposure time: 3-4 hours	–	–	0.47
concentration: 160 (µM), S9 metabolic activation: without S9, exposure time: 24 hours	–	–	2.31
concentration: 200 (µM), S9 metabolic activation: with S9, exposure time: 3-4 hours	–	–	0.38
concentration: 200 (µM), S9 metabolic activation: without S9, exposure time: 24 hours	–	–	0.95

CC#C[C@]1(O)CC[C@H]2[C@@H]3CCC4=CC(=O)CCC4=C3[C@@H](c3ccc(N(C)C)cc3)C[C@@]21C [Mifepristone]
Conditions	hypodiploid nuclei frequency, CHO-K1 [3] [%]	micronucleus frequency, CHO-K1 [2] [%]	relative survival, CHO-K1 [1]
concentration: 4.5 (µM), S9 metabolic activation: with S9, exposure time: 3-4 hours	0.26	0.9	66.4
concentration: 4.5 (µM), S9 metabolic activation: without S9, exposure time: 24 hours	0.44	2.7	85.3
concentration: 5.63 (µM), S9 metabolic activation: with S9, exposure time: 3-4 hours	0.2	1	79.3
concentration: 5.63 (µM), S9 metabolic activation: without S9, exposure time: 24 hours	0.52	2.52	98.5
concentration: 7.04 (µM), S9 metabolic activation: with S9, exposure time: 3-4 hours	0.24	1.04	76.7
concentration: 7.04 (µM), S9 metabolic activation: without S9, exposure time: 24 hours	0.54	2	107
concentration: 8.8 (µM), S9 metabolic activation: with S9, exposure time: 3-4 hours	0.14	0.92	76.4
concentration: 8.8 (µM), S9 metabolic activation: without S9, exposure time: 24 hours	0.52	2.14	122
concentration: 11 (µM), S9 metabolic activation: with S9, exposure time: 3-4 hours	0.16	0.78	76.7
concentration: 11 (µM), S9 metabolic activation: without S9, exposure time: 24 hours	0.48	2.08	104
concentration: 13.7 (µM), S9 metabolic activation: with S9, exposure time: 3-4 hours	0.2	1.08	81.8
concentration: 13.7 (µM), S9 metabolic activation: without S9, exposure time: 24 hours	0.46	1.56	108
concentration: 17.2 (µM), S9 metabolic activation: with S9, exposure time: 3-4 hours	0.08	1.02	108
concentration: 17.2 (µM), S9 metabolic activation: without S9, exposure time: 24 hours	0.7	1.68	113
concentration: 21.5 (µM), S9 metabolic activation: with S9, exposure time: 3-4 hours	0.28	1.4	108
concentration: 21.5 (µM), S9 metabolic activation: without S9, exposure time: 24 hours	0.44	2.22	73.4
concentration: 26.8 (µM), S9 metabolic activation: with S9, exposure time: 3-4 hours	0.4	0.84	63
concentration: 26.8 (µM), S9 metabolic activation: without S9, exposure time: 24 hours	0.56	1.32	81.2
concentration: 33.6 (µM), S9 metabolic activation: with S9, exposure time: 3-4 hours	0.18	0.7	107
concentration: 33.6 (µM), S9 metabolic activation: without S9, exposure time: 24 hours	0.5	1.04	72.9
concentration: 41.9 (µM), S9 metabolic activation: with S9, exposure time: 3-4 hours	0.14	0.98	66.9
concentration: 41.9 (µM), S9 metabolic activation: without S9, exposure time: 24 hours	0.54	1.38	56.9
concentration: 52.4 (µM), S9 metabolic activation: with S9, exposure time: 3-4 hours	0.24	1.46	81.1
concentration: 52.4 (µM), S9 metabolic activation: without S9, exposure time: 24 hours	0.52	1.44	53.1
concentration: 65.5 (µM), S9 metabolic activation: with S9, exposure time: 3-4 hours	0.22	1.6	77.8
concentration: 65.5 (µM), S9 metabolic activation: without S9, exposure time: 24 hours	0.6	1.3	48.2
concentration: 81.9 (µM), S9 metabolic activation: with S9, exposure time: 3-4 hours	0.25	0.83	54.6
concentration: 81.9 (µM), S9 metabolic activation: without S9, exposure time: 24 hours	0.42	1.46	43.6
concentration: 102 (µM), S9 metabolic activation: with S9, exposure time: 3-4 hours	0.25	1.21	66.5
concentration: 102 (µM), S9 metabolic activation: without S9, exposure time: 24 hours	0.46	1.78	46.4
concentration: 128 (µM), S9 metabolic activation: with S9, exposure time: 3-4 hours	0.32	1.3	59.1
concentration: 128 (µM), S9 metabolic activation: without S9, exposure time: 24 hours	–	–	40
concentration: 160 (µM), S9 metabolic activation: with S9, exposure time: 3-4 hours	0.14	0.9	75.8
concentration: 160 (µM), S9 metabolic activation: without S9, exposure time: 24 hours	0.36	1.26	46
concentration: 200 (µM), S9 metabolic activation: with S9, exposure time: 3-4 hours	0.3	1.52	95.1
concentration: 200 (µM), S9 metabolic activation: without S9, exposure time: 24 hours	0.37	1.01	47.9

Reference: the supplement of paper PMC9151546
